Test results published in PubChem BioAssay AID720709 (National Center for Advancing Translational Sciences (NCATS), 2013).
About 520 (0.14%) of roughly 360,000 compounds were called active. The shares of active, inactive and inconclusive entries below differ from those in the screen. Calls come from the whole dose curve; as a rule, active = well fitted inhibition curve with a large enough effect; inconclusive = small, poorly fitted or top-dose-only effect; inactive = no such curve, though single readings can be large or run the other way. Potencies of inconclusive entries are left out as doubtful fits.

target: Rap guanine nucleotide exchange factor 3 (Homo sapiens) (UniProt O95398); assay: qHTS for Antagonist of cAMP-regulated guanine nucleotide exchange factor 3 (EPAC1): primary screen; details: EPAC1 GEF assay, Rap1b-BODIPY-GDP exchange fluorescence; activity change, negative = inhibition: at 115 µM (top of the series); note: nearly all actives have a fitted effect of over 50% in size;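 for activity change, negative = inhibition: plate controls were vehicle for no effect and positive control for full effect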
Chain of UniProt O95398 (O95398 whole entry, looked up): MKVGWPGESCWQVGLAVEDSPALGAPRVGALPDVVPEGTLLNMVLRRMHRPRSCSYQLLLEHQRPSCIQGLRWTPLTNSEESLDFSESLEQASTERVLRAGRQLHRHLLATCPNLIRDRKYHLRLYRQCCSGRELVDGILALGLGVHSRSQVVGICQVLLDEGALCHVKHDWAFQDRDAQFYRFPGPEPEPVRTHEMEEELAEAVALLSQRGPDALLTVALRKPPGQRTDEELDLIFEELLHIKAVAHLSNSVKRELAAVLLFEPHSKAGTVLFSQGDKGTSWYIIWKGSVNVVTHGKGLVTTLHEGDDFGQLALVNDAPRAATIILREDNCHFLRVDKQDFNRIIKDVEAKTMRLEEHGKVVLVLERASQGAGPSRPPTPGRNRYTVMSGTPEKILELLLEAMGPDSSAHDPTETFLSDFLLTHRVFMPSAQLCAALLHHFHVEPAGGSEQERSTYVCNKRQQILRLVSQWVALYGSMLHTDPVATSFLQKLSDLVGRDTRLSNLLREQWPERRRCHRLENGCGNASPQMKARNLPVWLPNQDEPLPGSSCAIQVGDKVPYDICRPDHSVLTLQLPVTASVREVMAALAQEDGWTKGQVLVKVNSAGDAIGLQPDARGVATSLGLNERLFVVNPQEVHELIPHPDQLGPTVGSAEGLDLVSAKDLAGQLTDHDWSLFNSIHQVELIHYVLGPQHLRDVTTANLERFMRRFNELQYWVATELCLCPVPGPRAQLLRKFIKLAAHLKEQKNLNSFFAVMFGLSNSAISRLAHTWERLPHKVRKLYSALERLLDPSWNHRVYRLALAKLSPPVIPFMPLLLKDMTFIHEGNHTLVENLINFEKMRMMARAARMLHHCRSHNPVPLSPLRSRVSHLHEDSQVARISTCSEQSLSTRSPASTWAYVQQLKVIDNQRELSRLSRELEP
Text: In multi-cellular eukaryotic organisms, the effects of cAMP are transduced by two ubiquitously-expressed intracellular cAMP receptors, the classic protein kinase A/cAMP-dependent protein kinase (PKA/cAPK) and the more recently discovered exchange protein directly activated by cAMP/cAMP-regulated guanine nucleotide exchange factor (EPAC/cAMP-GEF). Both PKA and EPAC are ubiquitously expressed in all tissues, and an increase in intracellular cAMP levels will lead to the activation of both PKA and EPAC. Therefore, careful dissections of the individual role and relative contribution of EPAC and PKA within the overall cAMP signaling in various model systems are critical for further elucidating the mechanism of cAMP signaling. To date no EPAC-specific antagonists and agonist, as well as isoform-specific agonists have been reported, and developing EPAC-specific pharmacological probes to determine the physiological functions that EPAC play in the overall cAMP-mediated signaling remains a major challenge within the research field. Furthermore, identified regulators of EPAC may lead to new mechanism-based therapeutic strategies specifically targeting the EPAC / cAMP-signaling components as EPAC has been implicated to play important roles in major human pathological conditions such as diabetes, heart disease, and cancer. This qHTS will be used to screen the Molecular Libraries Small Molecule Repository (MLSMR) as a concentration-titration series using the NCGC unique quantitative screening (qHTS) platform to find inhibitors for EPAC1. In addition, this assay will also be used as a counterscreen for the EPAC2 qHTS. This fluorescent based assay is developed and validated for EPAC1 that measures exchange using EPAC effector Rap1 complex with BODIPY-GDP, a GDP analog with a tethered fluorophores. Inhibitors are identified by monitoring the change in fluorescence signal as the exchanged free BODIPY-GDP has a reduced fluorescence compared to Rap1-bound BODIPY-GDP. Decrease in signal (inhibition) is the desired outcome for the EPAC1 antagonist while no activity in this assay is desired for the EPAC2 antagonist counterscreen. de Rooij, J., Zwartkruis, F. J., Verheijen, M. H., Cool, R. H., Nijman, S. M., Wittinghofer, A., and Bos, J.L. (1998) Nature 396, 474-477 [2] Kawasaki, H., Springett, G. M., Mochizuki, N., Toki, S., Nakaya, M., Matsuda, M., Housman, D. E., and Graybiel, A. M. (1998) Science 282, 2275-2279 NIH Chemical Genomics Center [NCGC] NIH Molecular Libraries Probe Centers Network [MLPCN] MLPCN Grant: NS066510 Assay Submitter (PI): Xiaodong Cheng, The University of Texas, Medical Branch
Briefly, three uL of reagents (100 nM EPAC1, 250 nM RAP1B-BODIPY-GDP, 50 uM GDP) were dispensed into a 1536-well Greiner black solid-bottom medium binding assay plate. Controls and test compounds (23 nL) were transferred to the plate via a Kalypsys pin tool equipped with a 1536-pin array. The plates were centrifuged at 1,000 rpm for 15 seconds followed by 5 minute incubation at room temperature. The assay plates were read at 5 minute intervals for 30 minutes in the ViewLux plate reader using 480nm excitation and 540nm emission filters. The results were normalized to the […] positive control ATA and DMSO.
Potency is the fitted concentration of half-maximal effect; tags give direction and shape of the fitted curve.

SMILES | Potency | activity change, negative = inhibition
COc1ccc(Cn2nnnc2C(c2cc3cccc(C)c3[nH]c2=O)N2CCN(C)CC2)cc1 (stereo unspecified) | inconclusive [inhibitor, full curve, poor fit] | 
Cc1cc(Br)cn2c(Cc3ccccc3C(F)(F)F)c(-c3ccc(Cl)cc3)nc12 |  | inactive: -8.75%
N#Cc1ccc(Nc2nc(-c3ccc(O)cc3O)cs2)cc1C(F)(F)F | inconclusive [inhibitor, partial curve] | 
O=C(O)c1ccccc1N=N/C(=N/Nc1cc(S(=O)(=O)O)ccc1O)c1ccccc1 | inconclusive [inhibitor, partial curve] | 
Cc1cc(NC(=O)CSc2nnc(C3COc4ccccc4O3)n2C)no1 (stereo unspecified) | inconclusive [inhibitor, partial curve, poor fit] | 
COc1ccccc1N1CCN(C(=O)c2cc3cc(C)ccc3[nH]2)CC1 | inconclusive [inhibitor, full curve, poor fit] | 
O=C(Nc1ccc(-c2nnn(CC(=O)N3CCN(C(=O)c4ccco4)CC3)n2)cc1)c1ccc(F)cc1 | inconclusive [inhibitor, single point] | 
CCOc1ccc(OCCSc2nc(-c3ccccc3)cc(=O)[nH]2)cc1 | inconclusive [inhibitor, full curve] | 
CCCCCC(=O)Nc1ccc(N2CCOCC2)c(S(=O)(=O)Nc2ccc(OC)cc2)c1 | inconclusive [inhibitor, full curve, poor fit] | 
COc1cccc(CC2(CO)CCN(Cc3cccn3-c3cccnc3)CC2)c1 | inconclusive [inhibitor, partial curve] | 
NC(=S)N/N=C/c1ccc(-c2ccc([N+](=O)[O-])cc2)o1 |  | inactive: 3.26%
CC(C)NS(=O)(=O)c1ccc(OCC(=O)NCc2ccco2)cc1 | inconclusive [inhibitor, single point] | 
CC(Oc1ccc2c(-c3ccccc3)cc(=O)oc2c1)C(=O)NCCCN1CCOCC1 (stereo unspecified) | inconclusive [inhibitor, full curve, poor fit] | 
Cc1nc(CSc2nsc(/C=C/N(C)C)c2C#N)cs1 | inconclusive [inhibitor, single point] | 
COC(=O)CCCC1=CC2=C(c3ccccc3)C(=O)C(C)(OC(=O)C3CCCC3)C(=O)C2=CN1C1CC1 (stereo unspecified) |  | inactive: -5.59%
COc1ccc(C(=O)NCCNC(=O)c2ccc(C)nc2)cc1 | inconclusive [inhibitor, partial curve] | 
Cc1ccc(SCCC(=O)Nc2ccccc2C(=O)N2CCOCC2)cc1 | inconclusive [inhibitor, single point] | 
O=C(/C=C/c1ccc2c(c1)OCO2)c1ccc[nH]1 | inconclusive [inhibitor, single point] | 
Cc1cc(SC(C)C(=O)Nc2ncc(Cl)cc2Cl)nc2ccccc12 (stereo unspecified) | inconclusive [inhibitor, full curve] | 
CN(C)c1ccc(CNC(=O)CCS(=O)(=O)c2ccc3c(c2)n(C)c(=O)c(=O)n3C)cc1 | inconclusive [inhibitor, single point] | 
COc1ccc(N2CCN(C(=O)CCC(=O)N3CC(C)Oc4ccccc43)CC2)cc1 (stereo unspecified) | inconclusive [inhibitor, single point] | 

SMILES | Potency | activity change, negative = inhibition
Fc1ccc(Nc2cncc(-c3ccsc3)c2)cc1Cl | inconclusive [inhibitor, partial curve] | 
O=C(O)/C=C/C(=O)c1ccc2c(c1)CCc1ccccc1-2 | inconclusive [inhibitor, partial curve] | 
CSc1nc2c(c(=O)[nH]1)C(c1cccs1)C1=C(CCCC1=O)N2 (stereo unspecified) | inconclusive [inhibitor, single point] | 
CC(=O)Cn1cnc2scc(-c3ccc(C)c(C)c3)c2c1=O | inconclusive [inhibitor, partial curve, poor fit] | 
O=C1c2cccc3cccc(c23)N1Cc1ccc(F)cc1 | inconclusive [inhibitor, single point] | 
Cc1ccc2nc(NC(=O)CN3C(=O)C4CC=CCC4C3=O)sc2c1 (stereo unspecified) | inconclusive [inhibitor, partial curve, poor fit] | 
Cc1ccccc1C(c1ncccc1C)N(C)C(=O)C1CCN(CCOc2ccc(Cl)cc2Cl)CC1 (stereo unspecified) | inconclusive [inhibitor, full curve, poor fit] | 
COc1cccc(OCCCOc2ccc([N+](=O)[O-])cc2Cl)c1 | inconclusive [inhibitor, partial curve, poor fit] | 
NC(CSC(c1ccccc1)(c1ccccc1)c1cccc2ccccc12)C(=O)O (stereo unspecified) | inconclusive [inhibitor, partial curve] | 
CC1CCCCN1c1ccc(N)cc1C(N)=O (stereo unspecified) | inconclusive [inhibitor, full curve, poor fit] | 
CCn1c(SCC(=O)N/N=C/C=C/c2ccco2)nnc1-c1ccccc1 | inconclusive [inhibitor, single point] | 
O=C(O)c1ccc(Nc2nc(-c3cc4ccccc4oc3=O)cs2)cc1O | inconclusive [inhibitor, full curve] | 
COc1ccccc1C(=O)NC(=S)/C=C1/N(C)c2ccccc2C1(C)C | inconclusive [inhibitor, full curve] | 
O=C(NNc1ccccc1)Nc1ccccc1F | inconclusive [inhibitor, single point] | 
S=c1[nH]nc(-c2ccc(Cl)cc2Cl)n1-c1ccc(Cl)cc1 |  | inactive: -29.6%
CCC1CCCCN1S(=O)(=O)c1ccc(NC(=O)C2CC(=O)N(C(C)(C)C)C2)cc1 (stereo unspecified) | inconclusive [inhibitor, partial curve, poor fit] | 
Cc1nc(Nc2ccc(Cl)cc2)c2oc3ccccc3c2n1 | inconclusive [inhibitor, partial curve, poor fit] | 
COc1ccc(Cc2nnc(NC(=O)Cc3cccs3)s2)cc1 | inconclusive [inhibitor, single point] | 
O=C(NCc1ccccc1)c1c(Cl)nc(Cl)c(Cl)c1Cl | inconclusive [inhibitor, partial curve, poor fit] | 
COc1cccc(C(=O)O[C@H]2[C@H](Cc3ccccc3)NS(=O)(=O)[C@H]3C[C@@H]4C=C[C@]23O4)c1 | inconclusive [inhibitor, partial curve] | 
COC1=CC(=O)c2nc(Cl)ccc2C1=O | inconclusive [inhibitor, partial curve] | 

SMILES | Potency | activity change, negative = inhibition
NC(=O)NC(=O)COC(=O)CCCSc1nc2ccccc2s1 | inconclusive [inhibitor, partial curve] | 
CCOc1ccc(NS(=O)(=O)c2ccc(C(=O)NCC(c3ccc(OC)cc3)N3CCOCC3)cc2)cc1 (stereo unspecified) | inconclusive [inhibitor, partial curve] | 
COc1ccc2nc(NC(=O)CSc3nc(C)cc(=O)[nH]3)sc2c1 | inconclusive [inhibitor, partial curve] | 
Cc1ccccc1NC(=S)N(Cc1ccco1)C(C)c1ccccn1 (stereo unspecified) | inconclusive [inhibitor, partial curve] | 
COc1ccc(-n2c(=O)c3c4c(sc3n(CC(=O)Nc3cc(C)[nH]n3)c2=O)CCCC4)c(OC)c1 | inconclusive [inhibitor, partial curve] | 
Cc1ccc(C)c(S(=O)(=O)NC2CCS(=O)(=O)C2)c1 (stereo unspecified) | inconclusive [inhibitor, single point] | 
CCCn1cc(SCC(=O)NCc2ccc3c(c2)OCO3)c2ccccc21 | inconclusive [inhibitor, single point] | 
Cc1ccc(S(=O)(=O)N2CCC(=O)N(C(COCc3cccc(C(F)(F)F)c3)C(C)C)CC2)cc1 (stereo unspecified) | inconclusive [inhibitor, full curve] | 
O=C(/C=C/c1ccco1)c1ccc(NC(=O)C23CC4CC(CC(C4)C2)C3)cc1 | inconclusive [inhibitor, partial curve] | 
Oc1c(N=Nc2ccccn2)ccc2ccccc12 |  | inactive: -14.1%
COc1cc(Cl)cc(/C=N\NC(=O)c2ccc3c(c2)OCO3)c1O | inconclusive [inhibitor, partial curve] | 
O=C(COC(=O)CC(c1ccccc1)c1ccccc1)NCc1ccccc1 | inconclusive [inhibitor, full curve, poor fit] | 
CCOC(=O)C(Cc1ccccc1)NC(=O)CCc1nnc2ccc(N3CCOCC3)nn12 (stereo unspecified) | inconclusive [inhibitor, single point] | 
CCOc1ccccc1NC(=O)NCc1ccc2c(c1)OCO2 | inconclusive [inhibitor, full curve] | 
CCc1ccc(NC(=O)NCc2ccc3c(c2)OCO3)cc1 |  | inactive: 3.76%
CC1(c2nnc(-c3ccccc3)o2)CC(c2ccc([N+](=O)[O-])cc2)=NO1 (stereo unspecified) | inconclusive [inhibitor, single point] | 
COc1ccccc1C(=O)N/C(=C/c1ccc2c(c1)OCO2)C(=O)Nc1cccc(C(=O)O)c1 | inconclusive [inhibitor, full curve, poor fit] | 
CC(C)=CCC[C@H](C)CC1Cc2[nH]c(=S)[nH]c(=O)c2C(c2ccc(Cl)cc2)O1 (stereo partly specified) | inconclusive [inhibitor, partial curve] | 
NC(=O)COC(=O)c1ccccc1Nc1ccc(SC(F)F)cc1 | inconclusive [inhibitor, full curve] | 
